± gives the standard deviation of the averaged measurements. In all, about 33,000 sequences were measured (“E-score (dimensionless, -0.5 to 0.5)”: median about -0.049, highest 2% from about 0.37 on). The list shows a part of the results.
Each sequence was assayed on T1, PmTbr T-box DNA-binding domain (GST fusion) (assay: PBM E-score of 8-mer (E-score (dimensionless, -0.5 to 0.5)); Tbr is Tbrain of the sea star Patiria miniata (Pm) or the sea urchin Strongylocentrotus purpuratus (Sp); higher = stronger binding preference; most listed sequences are background and not binding sites). Details: the construct has about 5 more residues each side.
T1 sequence: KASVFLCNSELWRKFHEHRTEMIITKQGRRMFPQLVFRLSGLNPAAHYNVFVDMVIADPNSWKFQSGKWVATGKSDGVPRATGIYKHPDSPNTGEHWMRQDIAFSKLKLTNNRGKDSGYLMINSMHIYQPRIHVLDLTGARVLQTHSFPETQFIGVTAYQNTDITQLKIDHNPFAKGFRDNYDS
Procedure, shortened: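 Each ungapped 8-mer received an enrichment E-score from the Universal PBM Analysis Suite, averaged over duplicate arrays. The proteins were Tbr T-box DNA-binding domains, covering the whole T-box plus about five flanking residues, fused to GST and expressed in BL21 E. coli at 20 °C before glutathione affinity purification. Universal Agilent oligonucleotide arrays were made double-stranded by primer extension and incubated with 200 nM protein in PBS (pH 7.5). The arrays were then scanned and quantified, and every 8-mer was scored from probe intensities.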
For TCGCTCAA, the “PBM E-score of 8-mer” value was -0.0477 ± 0.049.
In the case of ATATCATC, the “PBM E-score of 8-mer” value is reported as -0.0357 ± 0.061.
With CTAAACCA the “PBM E-score of 8-mer” value was 0.00654 ± 0.038.
AATGTGAA was tested, and the “PBM E-score of 8-mer” value was 0.215 ± 0.0047.
With ACGGATTA the “PBM E-score of 8-mer” value was -0.183 ± 0.026.
ACTGCGCT was tested, and the “PBM E-score of 8-mer” value was 0.0435 ± 0.029.
In the case of TCGTACCA, the “PBM E-score of 8-mer” value is reported as -0.0293 ± 0.089.
With CCAGTCTC the “PBM E-score of 8-mer” value was -0.116 ± 0.032.
CCACCACG was tested, and the “PBM E-score of 8-mer” value was -0.00839 ± 0.13.
For GCCAAGCC, the “PBM E-score of 8-mer” value was -0.3 ± 0.033.
For AACCTCAC, the “PBM E-score of 8-mer” value was 0.219 ± 0.015.
With ACTCTGGA the “PBM E-score of 8-mer” value was -0.282 ± 0.032.
CCTAGAAG was tested, and the “PBM E-score of 8-mer” value was -0.116 ± 0.024.
In the case of CTGAATTC, the “PBM E-score of 8-mer” value is reported as -0.283 ± 0.015.
With ATGTTCCA the “PBM E-score of 8-mer” value was -0.118 ± 0.015.
AGGCTTCA was tested, and the “PBM E-score of 8-mer” value was -0.0816 ± 0.048.
With ACTGGAGG the “PBM E-score of 8-mer” value was 0.0506 ± 0.064.
For AGATAGTG, the “PBM E-score of 8-mer” value was 0.223 ± 0.056.
GCTACCAA was tested, and the “PBM E-score of 8-mer” value was 0.108 ± 0.054.
With GCCGCGCC the “PBM E-score of 8-mer” value was 0.061 ± 0.018.
With AAAGCCTG the “PBM E-score of 8-mer” value was -0.0728 ± 0.022.
GCGTTGCA was tested, and the “PBM E-score of 8-mer” value was 0.242 ± 0.035.
GCCTCGAA was tested, and the “PBM E-score of 8-mer” value was -0.213 ± 0.0074.
With TAGGCCTA the “PBM E-score of 8-mer” value was -0.0849 ± 0.041.
ATAGGGAC was tested, and the “PBM E-score of 8-mer” value was -0.00492 ± 0.035.
With AGACTGTA the “PBM E-score of 8-mer” value was -0.104 ± 0.069.
With ATCACGTC the “PBM E-score of 8-mer” value was 0.153 ± 0.0094.
With AATGAAAA the “PBM E-score of 8-mer” value was -0.0587 ± 0.014.
AATGGTGG was tested, and the “PBM E-score of 8-mer” value was -0.00471 ± 0.038.
In the case of ACTGTCGG, the “PBM E-score of 8-mer” value is reported as 0.176 ± 0.014.
TCCTGAAA was tested, and the “PBM E-score of 8-mer” value was -0.213 ± 0.065.
AGGTTATC was tested, and the “PBM E-score of 8-mer” value was -0.0427 ± 0.013.
In the case of CCGTCCAC, the “PBM E-score of 8-mer” value is reported as -0.204 ± 0.00076.
CTACGATA was tested, and the “PBM E-score of 8-mer” value was 0.168 ± 0.027.
GTGGCGCA was tested, and the “PBM E-score of 8-mer” value was 0.118 ± 0.017.
In the case of ATAAAAGA, the “PBM E-score of 8-mer” value is reported as -0.188 ± 0.0033.
GCTCTAAA was tested, and the “PBM E-score of 8-mer” value was -0.0297 ± 0.022.
With CCTATTCC the “PBM E-score of 8-mer” value was -0.125 ± 0.1.
For GCGTCGGA, the “PBM E-score of 8-mer” value was 0.011 ± 0.028.
In the case of AGATCGGG, the “PBM E-score of 8-mer” value is reported as -0.126 ± 0.023.
In the case of AGGTTCGA, the “PBM E-score of 8-mer” value is reported as -0.154 ± 0.022.
With AATGATTG the “PBM E-score of 8-mer” value was 0.0511 ± 0.14.
In the case of ACAAAGCC, the “PBM E-score of 8-mer” value is reported as -0.0874 ± 0.056.
In the case of TAAACACA, the “PBM E-score of 8-mer” value is reported as 0.145 ± 0.0066.
AGGATCCG was tested, and the “PBM E-score of 8-mer” value was -0.392 ± 0.04.
ATGTCAAC was tested, and the “PBM E-score of 8-mer” value was 0.171 ± 0.006.
AGTCGGAA was tested, and the “PBM E-score of 8-mer” value was -0.193 ± 0.062.
With TCCAGCAA the “PBM E-score of 8-mer” value was -0.268 ± 0.033.
In the case of GGGTGACA, the “PBM E-score of 8-mer” value is reported as 0.4543 ± 0.0023.
With CGGTTTAG the “PBM E-score of 8-mer” value was -0.0233 ± 0.07.
AGCAGAAT was tested, and the “PBM E-score of 8-mer” value was -0.00022 ± 0.075.
In the case of GACGGACC, the “PBM E-score of 8-mer” value is reported as -0.128 ± 0.011.
With AGGGAACT the “PBM E-score of 8-mer” value was -0.0419 ± 0.0039.
In the case of GCTATGGA, the “PBM E-score of 8-mer” value is reported as -0.263 ± 0.018.
ATGAATAA was tested, and the “PBM E-score of 8-mer” value was -0.223 ± 0.026.
CGCGCATC was tested, and the “PBM E-score of 8-mer” value was 0.0691 ± 0.012.
With CTCCTTCC the “PBM E-score of 8-mer” value was -0.0763 ± 0.059.
With ACGCAGAT the “PBM E-score of 8-mer” value was -0.171 ± 0.012.
ATCTGGGA was tested, and the “PBM E-score of 8-mer” value was -0.183 ± 0.012.
With CAAGGGCG the “PBM E-score of 8-mer” value was 0.0415 ± 0.012.
CAAGATTC was tested, and the “PBM E-score of 8-mer” value was -0.188 ± 0.023.
For ACGCTTGG, the “PBM E-score of 8-mer” value was -0.00775 ± 0.031.
With CTGCTTGA the “PBM E-score of 8-mer” value was -0.167 ± 0.086.
GAATCAGA was tested, and the “PBM E-score of 8-mer” value was -0.119 ± 0.013.
AGATAGAC was tested, and the “PBM E-score of 8-mer” value was -0.333 ± 0.0091.
For ATATATGC, the “PBM E-score of 8-mer” value was -0.23 ± 0.057.
With AGCTAACT the “PBM E-score of 8-mer” value was -0.2624 ± 0.0013.
ACAGTATC was tested, and the “PBM E-score of 8-mer” value was 0.11 ± 0.029.
In the case of AGTCAAGC, the “PBM E-score of 8-mer” value is reported as -0.29 ± 0.022.
For ACGCGCCA, the “PBM E-score of 8-mer” value was 0.245 ± 0.0088.
CAAAGGAC was tested, and the “PBM E-score of 8-mer” value was -0.172 ± 0.034.
In the case of ATTTTTAA, the “PBM E-score of 8-mer” value is reported as -0.145 ± 0.036.
With CGATGGTA the “PBM E-score of 8-mer” value was -0.0934 ± 0.015.
In the case of GCAACACC, the “PBM E-score of 8-mer” value is reported as 0.455 ± 0.0097.
With CCACCCAA the “PBM E-score of 8-mer” value was 0.0368 ± 0.047.
In the case of GACGATGC, the “PBM E-score of 8-mer” value is reported as -0.117 ± 0.015.
In the case of AATAACGG, the “PBM E-score of 8-mer” value is reported as -0.0235 ± 0.014.
In the case of TCGCGAGA, the “PBM E-score of 8-mer” value is reported as 0.334 ± 0.0074.
For AGCTACGG, the “PBM E-score of 8-mer” value was -0.169 ± 0.0041.
In the case of GCCGTTAC, the “PBM E-score of 8-mer” value is reported as -0.117 ± 0.026.
In the case of CTCCTGTC, the “PBM E-score of 8-mer” value is reported as -0.0333 ± 0.029.
ATAAGGAG was tested, and the “PBM E-score of 8-mer” value was -0.0477 ± 0.013.
In the case of GGTGGCAC, the “PBM E-score of 8-mer” value is reported as 0.38829 ± 0.00023.
CTCCATCA was tested, and the “PBM E-score of 8-mer” value was 0.123 ± 0.077.
For AATGGGCA, the “PBM E-score of 8-mer” value was -0.203 ± 0.024.
CGAAACCG was tested, and the “PBM E-score of 8-mer” value was 0.0109 ± 0.086.

Source: the supplement of paper PMC4166925
